{"source": "patent US10898579B2", "about": "“Conjugates of cysteine engineered antibodies” (priority 2015, dated 2021)", "molecules": {"B1": {"name": "huMOV19-C442-D4 (conjugate)", "heavy": "QVQLVQSGAEVVKPGASVKISCKASGYTFTGYFMNWVKQSPGQSLEWIGRIHPYDGDTFYNQKFQGKATLTVDKSSNTAHMELLSLTSEDFAVYYCTRYDGSRAMDYWGQGTTVTVSS[gap - human IgG1 constant region with changes]", "light": "DIVLTQSPLSLAVSLGQPAIISCKASQSVSFAGTSLMHWYHQKPGQQPRLLIYRASNLEAGVPDRFSGSGSKTDFTLTISPVEAEDAATYYCQQSREYPYTFGGGTKLEIKRTVAAPSVFIFPPSDEQLKSGTASVVCLLNNFYPREAKVQWKVDNALQSGNSQESVTEQDSKDSTYSLSSTLTLSKADYEKHKVYACEVTHQGLSSPVTKSFNRGEC"}}, "tested_on": "cervical carcinoma KB cell line", "test": "In vitro cytotoxicity assay, KB cells", "assay_type": "cell-based", "description": "The cell lines were cultured in culture medium as recommended by the cell supplier (ATCC or DSMZ). To each well of a flat bottom 96-well plate was added 1,000-2,000 cells in 100 μL of the culture medium. Conjugates were diluted into the culture medium using 3-fold dilution series and 100 μL were added per well. To determine the contribution of FRα-independent cytotoxicity, cells in some wells were pre-incubated with 2 μM huMOV19 antibody prior to the addition of conjugates (“blocked” or “+B”). Control wells containing cells and the medium but lacking the conjugates, as well as wells containing medium only, were included in each assay plate. Assays were performed in triplicate for each data point. The plates were incubated at 37° C. in a humidified 6% CO2 incubator for 5 to 6 days. Then the relative number of viable cells in each well was determined using either the Alamar Blue reagent according the manufacturer's protocol (Life Technologies) or the WST-8 based Cell Counting Kit-8 (Dojindo Molecular Technologies, Inc., Rockville, Md.). The apparent surviving fraction of cells in each well was calculated by first correcting for the medium background absorbance, and then dividing each value by the average of the values in the control wells (non-treated cells). The surviving fraction of cells was plotted against conjugate concentration in semi-log plots.", "data": [{"molecule": "B1", "values": [{"measurement": "activity compared with the lysine-linked conjugate", "result": "at least as active as the lysine-linked huMOV19-sulfo-SPDB-D1 conjugate"}]}]}
